From a compilation of properties of binary mixtures (doi:10.1016/j.molliq.2017.12.015)
The densities may have been worked out from excess volumes.

Test: xn = mol fraction of the nth substance listed
Conditions: 100 kPa

CCOCCO + CCCC[n+]1ccn(C)c1.O=S(=O)([N-]S(=O)(=O)C(F)(F)F)C(F)(F)F
mass density [kg/m3]
Conditions | x2 = 0 | x2 = 0.1036 | x2 = 0.1905 | x2 = 0.2965 | x2 = 0.3882 | x2 = 0.489 | x2 = 0.5889 | x2 = 0.7018 | x2 = 0.7928 | x2 = 0.9071
298.15 K | 925.1 | 1059.6 | – | – | 1263.7 | 1305.7 | 1340 | 1370.9 | – | 1418.3
303.15 K | 921 | 1055.4 | 1137.7 | 1210.7 | – | 1301.2 | 1335 | 1366 | 1388.3 | 1413.4
308.15 K | 916.8 | 1051.2 | 1133.4 | 1206.3 | 1254.7 | 1296.7 | 1330.1 | 1361.2 | 1383.4 | 1408.5
313.15 K | – | 1047 | 1129.2 | – | – | 1292.2 | 1325.2 | 1356.3 | 1378.5 | 1403.6
318.15 K | 908.5 | 1042.8 | 1124.9 | – | – | 1287.8 | 1320.2 | 1351.4 | – | 1398.7
323.15 K | 904.3 | 1038.6 | 1120.7 | – | 1241.2 | 1283.3 | 1315.3 | 1346.5 | 1368.7 | 1393.8

CCCC[n+]1ccn(C)c1.O=S(=O)([N-]S(=O)(=O)C(F)(F)F)C(F)(F)F + CCOCCO
x1 = 1
Conditions | mass density [kg/m3]
298.15 K | 1437.1
303.15 K | 1432.5
308.15 K | 1427.4
313.15 K | 1422.9
318.15 K | 1417.9
323.15 K | 1413.6
